From PubChem BioAssay AID504466 (National Center for Advancing Translational Sciences (NCATS), 2011)
Hit rate of the full screen: of about 330,000 compounds, about 4,200 (1.3%) were called active. Inconclusive means that the source gave no clear call. Such entries were picked first, then a sample of the others. The call rests on the fitted dose curve; in most records, active means well fitted activation curve with a large enough effect; inconclusive means small, poorly fitted or top-dose-only effect; inactive means no such curve, though single readings can be large or run the other way. Where the call is inconclusive, the potency comes from a doubtful curve fit.

assay: qHTS screen for small molecules that induce genotoxicity in human embryonic kidney (HEK293T) cells expressing luciferase-tagged ELG1; details: HEK293T ELG1-luciferase reporter, luminescence, 16 h; series mostly up to 46 µM; further: nearly all actives have a fitted effect of over 60% in size
Procedure, shortened: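 16 hr compound incubation (37 °C, 5% CO2) of HEK293T cells carrying luciferase-tagged ELG1; luciferase then measured by ONE-Glo luminescence after 30 min at RT.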
Potency means the concentration at half of the fitted maximal effect; tags describe the fitted curve by direction and shape.

**Q.** With `CCCN1C(C)C(C(=O)OCC)=CN(Cc2ccc(Br)cc2)S1(=O)=O` (stereo unspecified) as the molecule, how does the Potency read?
**A.** inactive

**Q.** Which Potency does the source give for `OC1CCCCC1Sc1nc2ccccc2s1` (stereo unspecified) here?
**A.** inconclusive: 20.6 µM [activator, partial curve, poor fit]

**Q.** For `O=C(NCCOc1ccccc1F)C1CCC(=O)N(CCc2cccc(F)c2)C1` (stereo unspecified), which Potency is on record?
**A.** inactive

**Q.** For `COc1ccc(C2Nc3ccccc3C(=O)N2c2ccc(C)cc2)cc1Cn1nc(C)c([N+](=O)[O-])c1C` (stereo unspecified), which Potency is on record?
**A.** inconclusive: 20.6 µM [activator, partial curve, poor fit]

**Q.** Which Potency does the source give for `CN(Cc1cccs1)c1ncnc2sccc12` here?
**A.** inconclusive: 14.6 µM [activator, partial curve]

**Q.** Which Potency does the source give for `CC(=O)OC(CC(=O)O)C[N+](C)(C)C` (stereo unspecified) here?
**A.** inactive

**Q.** With `C/C(=N\OCc1nc2ccccc2c(=O)n1/N=C/c1cc(C)cc([N+](=O)[O-])c1O)c1ccccc1` as the molecule, how does the Potency read?
**A.** inconclusive: 29.1 µM [activator, single point]

**Q.** For `O=C(CNS(=O)(=O)c1ccccc1)N1CCc2ccccc2C1`, which Potency is on record?
**A.** inactive

**Q.** For `CCCCN(C(=O)c1cccc(S(=O)(=O)N2CC(C)OC(C)C2)c1)c1c(N)n(CC(C)C)c(=O)[nH]c1=O` (stereo unspecified), which Potency is on record?
**A.** inactive

**Q.** For `O=C1Cc2cc(NS(=O)(=O)c3ccc(F)cc3)cc3c2N1CCC3`, which Potency is on record?
**A.** inconclusive: 20.6 µM [activator, single point]

**Q.** Which Potency does the source give for `O=C(NCc1cccs1)C1CC(c2ccccc2O)=NO1` (stereo unspecified) here?
**A.** inconclusive: 29.1 µM [activator, partial curve, poor fit]

**Q.** Which Potency does the source give for `COc1ccc(NC(=O)c2ccc(-n3cccn3)nc2)cc1` here?
**A.** inconclusive: 32.6 µM [activator, partial curve, poor fit]

**Q.** With `CC(C)C(=O)N/N=C/c1ccc(OCc2ccccc2)cc1` as the molecule, how does the Potency read?
**A.** inactive

**Q.** With `NC(=O)c1ccccc1NC(=O)CCc1ccccc1` as the molecule, how does the Potency read?
**A.** inconclusive: 18.4 µM [activator, single point]

**Q.** With `c1ccc(-c2cc3ncccc3cn2)cc1` as the molecule, how does the Potency read?
**A.** inconclusive: 13 µM [activator, partial curve, poor fit]

**Q.** For `O=C(NCc1ccncc1)C(=O)N/N=C/c1ccc(OCc2ccccc2)cc1`, which Potency is on record?
**A.** inconclusive: 23.1 µM [activator, single point]

**Q.** For `Cc1cc(C=C2C(=O)c3ccccc3C2=O)c(C)n1-c1ccccc1`, which Potency is on record?
**A.** inconclusive: 3.26 µM [activator, partial curve, poor fit]

**Q.** For `COc1ccc2cc(C3OCCO3)c(Cl)nc2c1`, which Potency is on record?
**A.** inconclusive: 8.2 µM [activator, partial curve]

**Q.** For `NC(=O)C1CCN(CC(=O)Nc2cccnc2Cl)CC1`, which Potency is on record?
**A.** inactive

**Q.** With `O=C(Cc1c[nH]c2ccccc12)Nc1ccc(N2CCOCC2)cc1` as the molecule, how does the Potency read?
**A.** inactive

**Q.** Which Potency does the source give for `O=C(CSc1ccc(F)cc1)Nc1ccc(C2SCCS2)cc1` here?
**A.** inconclusive: 20.6 µM [activator, partial curve, poor fit]

**Q.** With `O=C(NC1CCCCC1)c1ccc(-c2ccccc2F)o1` as the molecule, how does the Potency read?
**A.** inconclusive: 1.64 µM [activator, full curve]

**Q.** With `O=C(Cn1nnc2ccccc2c1=O)NCCc1ccc(Cl)cc1Cl` as the molecule, how does the Potency read?
**A.** inconclusive: 29.1 µM [activator, partial curve, poor fit]

**Q.** Which Potency does the source give for `Cc1ccccc1NC(=O)C1CCCN1S(=O)(=O)c1ccccc1C(F)(F)F` (stereo unspecified) here?
**A.** inactive

**Q.** With `O=[N+]([O-])c1ccn(-c2nc(-c3cccs3)cc(C(F)(F)F)n2)n1` as the molecule, how does the Potency read?
**A.** inconclusive: 29.1 µM [activator, single point]

**Q.** With `Fc1cccc(F)c1CSc1nc2ccccc2[nH]1` as the molecule, how does the Potency read?
**A.** inconclusive: 2.31 µM [activator, full curve]

**Q.** For `CCOC(=O)[C@H]1[C@H]2COc3ccccc3[C@@H]2N2C(=O)c3ccccc3NC(=O)[C@@]12C`, which Potency is on record?
**A.** inactive

**Q.** For `Cc1cccc(N2CC(C(=O)Nc3ccc(N4CCOCC4)cc3)CC2=O)c1C` (stereo unspecified), which Potency is on record?
**A.** inactive

**Q.** With `COc1ccc(C(=O)O/N=C(/c2ccccc2)c2ccncc2)cc1` as the molecule, how does the Potency read?
**A.** inconclusive: 0.0183 µM [activator, full curve, poor fit]

**Q.** Which Potency does the source give for `Cc1ccc(-n2c(C)cc(/C=C(\C#N)C(=O)NCC3CCCO3)c2C)cc1` (stereo unspecified) here?
**A.** inconclusive: 2.31 µM [activator, partial curve]

**Q.** With `CC(C)c1ccc(NC(=O)c2cccnc2)cc1` as the molecule, how does the Potency read?
**A.** active: 20.6 µM

**Q.** For `COCCN=C1NN=C(c2ccc(C)c([N+](=O)[O-])c2)CS1`, which Potency is on record?
**A.** active: 18.3 µM

**Q.** With `Cc1cc2nc(-c3ccc[nH]c3=O)n(Cc3ccc(F)cc3)c2cc1C` as the molecule, how does the Potency read?
**A.** inactive

**Q.** For `Cc1cccc(-c2nnc(-c3ccc(N)cc3)o2)c1`, which Potency is on record?
**A.** inconclusive: 3.66 µM [activator, partial curve]

**Q.** Which Potency does the source give for `COc1ccc([C@H]2CC(=O)C=C(/C=C/c3ccccc3)C2)cc1` here?
**A.** inconclusive: 23.1 µM [activator, partial curve, poor fit]

**Q.** With `O=C(Nc1ccc2c(c1)OCO2)c1c[nH]c(=O)n(-c2ccc(F)cc2)c1=O` as the molecule, how does the Potency read?
**A.** inconclusive: 14.6 µM [activator, partial curve, poor fit]

**Q.** For `CCOC(=O)c1ccc(S(=O)(=O)N2CCN(Cc3cc4c(cc3O)OCO4)CC2)cc1`, which Potency is on record?
**A.** inactive

**Q.** With `Fc1ccccc1/C=C1\CCCC2=C1Nc1nnnn1C2c1ccccc1F` (stereo unspecified) as the molecule, how does the Potency read?
**A.** inconclusive: 25.9 µM [activator, partial curve, poor fit]

**Q.** With `Cc1ccccc1NC(=O)c1cc2ccccc2o1` as the molecule, how does the Potency read?
**A.** active: 7.3 µM

**Q.** For `CCOC(=O)C1=C(C)Nc2nc(SC)nn2C1c1ccc(C(=O)OC)cc1` (stereo unspecified), which Potency is on record?
**A.** inconclusive: 20.6 µM [activator, single point]

**Q.** For `O=[N+]([O-])c1c(C(Cl)Cl)nn(-c2ccccc2)c1N1CCOCC1`, which Potency is on record?
**A.** inactive

**Q.** With `CCN(CC)CCNC(=O)c1ccc(NC(=O)c2cn(-c3ccccc3)nc2-c2cccs2)cc1` as the molecule, how does the Potency read?
**A.** inactive

**Q.** For `CC(Sc1nnc(-c2ccccc2)c(-c2ccccc2)n1)C(=O)NCC1CCCO1` (stereo unspecified), which Potency is on record?
**A.** inactive

**Q.** For `O=C(NCCC1=CCCCC1)c1coc(=O)c(Br)c1`, which Potency is on record?
**A.** inconclusive: 32.6 µM [activator, partial curve, poor fit]

**Q.** For `O=C(N/N=C/c1ccccn1)c1ccc(Cl)c(Cl)c1`, which Potency is on record?
**A.** active: 20.6 µM

**Q.** With `CC(C)(C)c1ccc(/C=N/Nc2ccc(C(=O)O)cc2)cc1` as the molecule, how does the Potency read?
**A.** inconclusive: 0.0517 µM [activator, partial curve, poor fit]
